# Assay results taken from article PMC12136788.
# Some of the results follow.
# T1: UNK ZnF1-3 (human, UniProt Q9C0B0 31-174)
# T1 sequence: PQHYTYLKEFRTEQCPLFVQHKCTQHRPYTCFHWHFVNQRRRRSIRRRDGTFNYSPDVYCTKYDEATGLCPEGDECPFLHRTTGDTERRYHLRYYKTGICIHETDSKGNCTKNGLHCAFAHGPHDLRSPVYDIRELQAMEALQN
# B1: chr17:65337135:65337136:-_ENSG00000197170_ENST00000584008|hu_mus|FALSE|FALSE (ssRNA)
# RNA: GGGAGUUCUACAGUCCGACGAUCCUGGAAGUUGAUGACUCCAGCCAACCUGUCUACUUUAGCAAAGAUGGUCUUGUUAACGACUAGAUUCGAGAGGAAAGCCUCUGACUCAUCCACAGAGAGAUCCAGAAGUUGUGCCAUCCUCAACAGAGGAUUGAGCAUCA
# B2: chr14:21542388:21542389:+_ENSMUSG00000021819_ENSMUST00000022358|mus_mus|FALSE|FALSE (ssRNA)
# RNA: GGGAGUUCUACAGUCCGACGAUCGAAGGCGCUGCGAGCGCUGCGGAUUGCAUUCACAAAGUCGUCGUAGUCGGCAGGAGUCAGGUGAAUUAAGCGGUGAUGGAUGUACUGCAUGUAUGCCUGCUGACAGCGCUGCACCAGUUGCAACAGAGGAUUGAGCAUCA
# B3: chr22:19452774:19452775:-_ENSG00000070010_ENST00000399523|hu_hu|hu_hu_hu_mus_False|1_28 (ssRNA)
# RNA: GGGAGUUCUACAGUCCGACGAUCCUUCUCAUUGUAGUUGAUAGCAAUCACAUCUCCAGUCGUCAGACAGGCGAAGUUUCUCAAUGCAUUUUCUAAUACCGCUUUAGGGUUGGUGAUAUCCAGGAAGUCUGGGCUCUGAGGUUGCAACAGAGGAUUGAGCAUCA
# B4: chr12:118471567:118471568:-_ENSG00000176871_ENST00000315436|hu_hu|FALSE|FALSE (ssRNA)
# RNA: GGGAGUUCUACAGUCCGACGAUCGCACUUGGCCAACAUCGAAGCAACUCUGACCACAGCAGGAGAGAACUUGAACCAAUGCUACCACUGCAUCAGAAACACAAGGAUAGGUACUAGGCAGAAGCCAUCGUUCCCAGCGGAGGGCAACAGAGGAUUGAGCAUCA
# B5: chr3:19992450:19992451:+_ENSG00000144566_ENST00000273047|hu_hu|FALSE|FALSE (ssRNA)
# RNA: GGGAGUUCUACAGUCCGACGAUCUUUCACAAAACGAAGCACUAGGCUUGAUUUGCCAACAGCGGACUCUCCCAGAAGUACUAGUUUGAACUGGCAUAUUUUAUUUCCCGUAUUUGGCCCGUUGGGUCUUGUUGCGCCUCGACUCAACAGAGGAUUGAGCAUCA
# B6: chr7:135333399:135333400:+_ENSG00000155561_ENST00000285968|hu_hu|FALSE|FALSE (ssRNA)
# RNA: GGGAGUUCUACAGUCCGACGAUCUGUCCAUAUACAAAGAAAGAAAUAGCAAAAUAUUUUUGGUCAUAAUUUAGAAAGAAACUAAUCUAUAAAAUGGAGACAAUUCUCCCCAAUUCAUCUCUCUCAUAGAAGAGCAUAAGCACGCAACAGAGGAUUGAGCAUCA
# B7: chr5:177632888:177632889:+_ENSG00000197451_ENST00000358344|hu_hu|FALSE|FALSE (ssRNA)
# RNA: GGGAGUUCUACAGUCCGACGAUCUAUUGUACAGUCAACGACCUCUCCAAAUUUAGUAAAAUAGUCUUUUAAAUCUUUUUUGCUAGUAUCCCAGCUCAGGCCACCAACGAACAUUUUUCCCGCGUCCUCCUCGUUCUUGCUGGCCAACAGAGGAUUGAGCAUCA
# B8: chr8:26933331:26933332:-_ENSMUSG00000031575_ENSMUST00000166078|mus_mus|FALSE|FALSE (ssRNA)
# RNA: GGGAGUUCUACAGUCCGACGAUCCUGGUGGAACUUGGUGCCUUUCUUGCUCCGCCAAGAAUAGCUAAACUUAUCAUAGCCUAAGGGAGCUUGGAGGUUACCUAAGGGCUGGGACCAGCCCAGCCUGGCAGCAGUGUCUGGGGGCAACAGAGGAUUGAGCAUCA
# B9: chr10:115881139:115881140:-_ENSG00000165813_ENST00000369287|hu_hu|motif|central (ssRNA)
# RNA: GGGAGUUCUACAGUCCGACGAUCAUAAAAAUAUUUUCACCAGGGUAGCAUAUAUAACAACAUUUACAUUAUUAAGGAUUCGGUUUUUUUCUUUUACUGAUAAAUCUUGGUUUAAAUUUGCAUGUAACAAUUUUUAGAAAAUAACAACAGAGGAUUGAGCAUCA
# B10: 15478512_15479670_848_CDS_ENSG00000164985_ENST00000380738|human|control|control (ssRNA)
# RNA: GGGAGUUCUACAGUCCGACGAUCGGGUCUGCCUCUUGGUUUUGGAAUCUUGACUUCUGUAGCUGCAGGUCGUCCUCUUUUAGGACUCACUUUUAGAUUAACAGAUGCUGUUGCUGUUGUCACUACUCCUGCCUCCUCAGUUUCCAACAGAGGAUUGAGCAUCA
# B11: chr4:120564322:120564323:+_ENSMUSG00000032890_ENSMUST00000071093|mus_mus|FALSE|FALSE (ssRNA)
# RNA: GGGAGUUCUACAGUCCGACGAUCAAGUGUCCAUACGAUGCUCCUUUGGGUUCUUUCCAGCAAGAUACAGAGAUGUGGACUAUAUAGUCCAUGUGAUCACCAGGACUGAUUGUACACAGACAAAUGGACAAAUAUGUGGACACACAACAGAGGAUUGAGCAUCA
# B12: chr2:39006174:39006175:+_ENSG00000152147_ENST00000409566|hu_hu|FALSE|FALSE (ssRNA)
# RNA: GGGAGUUCUACAGUCCGACGAUCUCAUUCUUCUCACUGGCUGUCACUCGGACCUCUUUGUAAAUGUAAUCUUGCCAUUCUAAGGGGCCUUUCUUCAUCCAUUCACUCAUGAUUGCCACCUGGCUAAAUCAGUUAAAAAACUCCCAACAGAGGAUUGAGCAUCA
# B13: chr6:86333760:86333761:-_ENSG00000135316_ENST00000355238|hu_mus|hu_hu_hu_mus_True|28_108 (ssRNA)
# RNA: GGGAGUUCUACAGUCCGACGAUCUUCUUCAAGAAUCUGCUCCUUGGUUUUACUCUUAGGAAUCGAGCCCACAAAAAGCCUAUUGUUGGCAACUGAGAUGCAGACACCAAUAUGUUUCCCGGAACGAAUUUCAUGAUUAUUAUACAACAGAGGAUUGAGCAUCA
# B14: chr4:83978119:83978120:+_ENSG00000138663_ENST00000264389|hu_mus|FALSE|FALSE (ssRNA)
# RNA: GGGAGUUCUACAGUCCGACGAUCGUUUAUGUAAGCCUCGGCCUGGACGGGAUCGUCAUCCUCCAGGUAUAGCCUUGCAAUCUUCAGGUAAGUCUCCAGCUUAUAAUCUACGUUGUACUGUUUUUGUCCUGUUUCCAGAGGAAUCAACAGAGGAUUGAGCAUCA
# B15: chrX:106345308:106345309:+_ENSMUSG00000031246_ENSMUST00000033598|mus_hu|FALSE|FALSE (ssRNA)
# RNA: GGGAGUUCUACAGUCCGACGAUCUUCUCUCAUCCACUUCCGAUUCUCUUCAUUGGCUGCAAUAUCUUUUUCUUCAAAUCCUAUUUUGUUGGCUUCUAGGAAACCAAGCACAUCUUGUUGUUUCUUCUUAAUCGCUGUAGAGCCCAACAGAGGAUUGAGCAUCA
# B16: chr7:141450121:141450122:+_ENSG00000106028_ENST00000265304|hu_mus|hu_hu_hu_mus_True|98_98 (ssRNA)
# RNA: GGGAGUUCUACAGUCCGACGAUCUCAUCCGUUCUAUUCCUUCUCUUUUGUCUGGUCACUCAGAAAUAUAAUGUUAUCAGCUAUGAUUGUUGUUGCUUGCCGCCUCACAUUGUUUUUAUCCAUGUACUCGCCAUAGUCCACUUUCAACAGAGGAUUGAGCAUCA
# B17: chr11:102337468:102337469:-_ENSMUSG00000034621_ENSMUST00000143842|mus_mus|FALSE|FALSE (ssRNA)
# RNA: GGGAGUUCUACAGUCCGACGAUCAAGGAAAACUACCUCCAGGAUGGCAGAGGCGGCCAGAGCAUGGCUAGAUCUACAACCUAACGAGAAGCAGCACAAAAAUGUUAAUACUGUUUUAUUUAAAUAUUUACACGGGCUGAAAGCCAACAGAGGAUUGAGCAUCA
# B18: chr3:41268740:41268741:+_ENSG00000168036_ENST00000349496|perfect_dup|motif|central (ssRNA)
# RNA: GGGAGUUCUACAGUCCGACGAUCCACUCUGCUUGUGGUCCACAGUAGUUUUUCGUAAGUAUAGGUCCUCAUUAUAUUUACGGAAGCUUGGGGUCCACCACUAGCCAGUAUGAUGAGCUUGCUUUCUUGGUUGCCAUAAGCUAACAACAGAGGAUUGAGCAUCA
# B19: 18138343_18138463_2469_3pUTR_ENSMUSG00000026740_ENSMUST00000166495|mouse|control|control (ssRNA)
# RNA: GGGAGUUCUACAGUCCGACGAUCUUAGAUCCAUGUAUUCAUGUGCAUGUGUCUAUGUGGGCUCGGAUGUGUGUGCUGUACCACAAUAUGAAUGCAGAGGUCAGAGGACAGCUCCUGUGAACAUGUGCUUGCUGGAGAGUGAGUCAACAGAGGAUUGAGCAUCA
# B20: chr2:73747962:73747963:-_ENSMUSG00000018770_ENSMUST00000018914|mus_hu|FALSE|FALSE (ssRNA)
# RNA: GGGAGUUCUACAGUCCGACGAUCGCCCUCUCCAGUCCUACUAGCCUCUGGUCGAGAUAACACUGAUGCAGAAAUUGGUCUGUAUGCAACUCUGGAUCCAGCUCGGAUCAGAGAGGGGGUGCAGGCGAGCUUGGCGCAGGCGAACAACAGAGGAUUGAGCAUCA
# B21: chr4:99997526:99997527:-_ENSG00000197894_ENST00000296412|hu_mus|FALSE|FALSE (ssRNA)
# RNA: GGGAGUUCUACAGUCCGACGAUCGGAGUAAUCCACGCCCCCAUCUGUCAUCUCAACGAGGACUUCCUGGAUGGAUUUACUGAAGUCUUGGGGGCUAAUACAUUCAGAGGCUCCAAAUUCUUUGGCCUUUGCGAAUUUAUCUUUCAACAGAGGAUUGAGCAUCA
# B22: chrX:70927055:70927056:+_ENSMUSG00000019558_ENSMUST00000114465|mus_mus|motif|central (ssRNA)
# RNA: GGGAGUUCUACAGUCCGACGAUCAGAGGCUGUGUUUACUUCUGGUAUUCACCUUCACUAAGGGAUAAGAGAUCUACAGACCGGCACAUACACACACAUACACACACACACACACACACACACACAGAGGGGGGUGUGCACUCACAACAGAGGAUUGAGCAUCA
# Target: T1, UNK ZnF1-3
# Assay: nsRBNS (natural sequence RNA bind-n-seq); RBNS binding buffer (assumed for nsRBNS): 25 mM Tris pH 7.5, 150 mM KCl, 3 mM MgCl2, 0.01% Triton X-100, 500 ug/ml BSA, 20 U/ml SUPERase-In, 4 C; UNK is unkempt and MSI1 is Musashi-1; names of the RNAs are library labels; protein concentration not given here; high values mean tight binding
row,Binder,binding signal [enrichment R]
1,B1,0.736
2,B2,1.14
3,B3,0.728
4,B4,1.48
5,B5,0.685
6,B6,1.9
7,B7,1.66
8,B8,0.823
9,B9,2.85
10,B10,0.365
11,B11,1.69
12,B12,0.645
13,B13,1.08
14,B14,0.519
15,B15,0.412
16,B16,0.411
17,B17,2.59
18,B18,1.29
19,B19,1.27
20,B20,0.811
21,B21,0.658
22,B22,0.839
